From the supplement of paper PMC4604168 (melanoma cell lines)
This is one part of the list. Repeats are few or missing, and single values can be far off.

Tests used:
Experiment in all cases: cell count relative to DMSO control; melanoma cells; higher = more viable cells
Settings in all cases: library dose: standard library concentration; 72 h
SkMel28 = system: SkMel28
SkMel2 = system: SkMel2
SkMel30 = system: SkMel30
SkMel5 = system: SkMel5
UACC257 = system: UACC257
UACC62 = system: UACC62
WM115 = system: WM115
WM1716 = system: WM1716
WM3526 = system: WM3526
WM1745 = system: WM1745
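Further: cells treated in 1,536-well plates, then fixed and DAPI-stained, with nuclei counted from automated high-throughput microscope images.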

SMILES | cell count (SkMel28) | cell count (SkMel2) | cell count (SkMel30) | cell count (SkMel5) | cell count (UACC257) | cell count (UACC62) | cell count (WM115) | cell count (WM1716) | cell count (WM3526) | cell count (WM1745)
O=C(Nc1cc(C(F)(F)F)cc(C(F)(F)F)c1)c1cc(Cl)ccc1O + O=c1cc(-c2cccc3c2Sc2ccccc2S3)oc(N2CCOCC2)c1 [KU55933] (first compound 0.08 µM, partner dose 5 µM) | 106% | 81.6% | 113% | 71.9% | 97.1% | 112% | 96.2% | 118% | 84.9% | –
O=C(O)c1ccc2c(c1)nc(Nc1cccc(Cl)c1)c1ccncc12 + Cn1cc(/C=C2\C(=O)Nc3cccnc32)c2ccccc21 [GW441756] (first compound 2 µM, partner dose 2 µM) | 69.3% | – | 87.4% | 57.8% | 73.2% | 70.6% | 88.8% | 98.9% | 78.2% | –
O=C(O)c1ccc2c(c1)nc(Nc1cccc(Cl)c1)c1ccncc12 + COc1cc2ncnc(Nc3ccc(Oc4ccccc4)cc3)c2cc1OC [SrcI1] (first compound 2 µM, partner dose 10 µM) | 47.2% | 88.2% | 71.1% | 57.9% | 87.8% | 39.2% | 70.2% | 77.8% | 52.9% | –
O=C(O)[C@@H]1[O][Sb](=[O])([O][Sb]2(=[O])[O][C@H]([C@H](O)CO)[C@H](O)[C@H](C(=O)O)[O]2)[O][C@H]([C@H](O)CO)[C@@H]1O (some centres undefined) [stibogluconate] + COc1ccc(COc2ccc(Cc3cnc(N)nc3N)cc2OC)cc1 [GW2580] (first compound 10 µM, partner dose 5 µM) | 75.3% | 81.6% | 125% | 73.6% | 73.3% | 100% | 85.5% | 72.7% | 79.7% | –
O=C(O)[C@@H]1[O][Sb](=[O])([O][Sb]2(=[O])[O][C@H]([C@H](O)CO)[C@H](O)[C@H](C(=O)O)[O]2)[O][C@H]([C@H](O)CO)[C@@H]1O (some centres undefined) [stibogluconate] + COc1cc(N2CCC(N3CCN(C)CC3)CC2)ccc1Nc1ncc(Cl)c(Nc2ccccc2S(=O)(=O)C(C)C)n1 [NVP-TAE684] (first compound 10 µM, partner dose 0.4 µM) | 81.4% | 62.7% | 92.9% | 63.9% | 83.5% | 82.6% | 57.5% | 78.6% | 74.8% | –
O=C(Nc1cc(C(F)(F)F)cc(C(F)(F)F)c1)c1cc(Cl)ccc1O + O=S(=O)(c1ccccc1)N(CC(F)(F)F)c1ccc(C(O)(C(F)(F)F)C(F)(F)F)cc1 [T0901317] (first compound 0.08 µM, partner dose 7 µM) | 67.9% | 96.2% | 76.8% | 57.9% | 57.2% | 78.7% | 85.4% | 77.3% | 70.4% | –
O=C(O)c1ccc2c(c1)nc(Nc1cccc(Cl)c1)c1ccncc12 + CCc1ccc(CCOc2ccc(CC3SC(=O)NC3=O)cc2)nc1 [pioglitazone] (first compound 2 µM, partner dose 10 µM) | 44.1% | 73.5% | 70.6% | 86.8% | 82% | 64.1% | 79.1% | 102% | 72.8% | –
O=C(O)c1ccc2c(c1)nc(Nc1cccc(Cl)c1)c1ccncc12 + c1cc(-c2cnn3cc(-c4ccc(OCCN5CCCCC5)cc4)cnc23)ccn1 [Dorsomorphin] (first compound 2 µM, partner dose 2 µM) | 60.5% | – | 87.8% | 64% | 82.3% | 77.4% | 52.6% | 79.1% | 69.3% | –
O=C(Nc1ccccc1)c1cc([N+](=O)[O-])ccc1Cl + O=S(=O)(c1ccccc1)N(CC(F)(F)F)c1ccc(C(O)(C(F)(F)F)C(F)(F)F)cc1 [T0901317] (first compound 10 µM, partner dose 7 µM) | 42.8% | – | 75.1% | 62.4% | 67.8% | 70.6% | 81.4% | 99.3% | 65.8% | 58.1%
O=C(O)[C@@H]1[O][Sb](=[O])([O][Sb]2(=[O])[O][C@H]([C@H](O)CO)[C@H](O)[C@H](C(=O)O)[O]2)[O][C@H]([C@H](O)CO)[C@@H]1O (some centres undefined) [stibogluconate] + O=c1cc(-c2cccc3c2Sc2ccccc2S3)oc(N2CCOCC2)c1 [KU55933] (first compound 10 µM, partner dose 5 µM) | 61.3% | 69.8% | 104% | 95.4% | 93.9% | 63.5% | 76.3% | 84.3% | 72% | –
O=C(Nc1cc(C(F)(F)F)cc(C(F)(F)F)c1)c1cc(Cl)ccc1O + Oc1cc(-c2nc(-c3ccccc3)[nH]c2-c2ccncc2)ccc1Cl [L779450] (first compound 0.08 µM, partner dose 1 µM) | 51% | 29.9% | 96.4% | 68.6% | 95% | 50.8% | 59.6% | 73.8% | 57% | –
O=C(O)c1ccc2c(c1)nc(Nc1cccc(Cl)c1)c1ccncc12 + COc1cc(N2CCC(N3CCN(C)CC3)CC2)ccc1Nc1ncc(Cl)c(Nc2ccccc2S(=O)(=O)C(C)C)n1 [NVP-TAE684] (first compound 2 µM, partner dose 0.4 µM) | 65.1% | 52.7% | 83.3% | 77% | 78.2% | 83.5% | 70.3% | 64.7% | 73% | –
O=C(O)c1ccc2c(c1)nc(Nc1cccc(Cl)c1)c1ccncc12 + COc1ccc2c(c1)CCC1C2CCC2(C)C(NCCCCCCN3C(=O)C=CC3=O)CCC12 [U73122] (first compound 2 µM, partner dose 2 µM) | 42.6% | 84.5% | 73.8% | 83.4% | 84.4% | 48.8% | 78.4% | 69.7% | 61% | –
O=C(Nc1ccccc1)c1cc([N+](=O)[O-])ccc1Cl + COc1ccc(-c2ccc3c(N4CCOCC4)nc(N4C[C@@H](C)O[C@@H](C)C4)nc3n2)cc1CO [KU0063794] (first compound 10 µM, partner dose 0.1 µM) | 59.7% | – | 102% | 62% | 91.3% | 119% | 66.1% | 97.4% | 74.6% | 73.3%
O=C(O)[C@@H]1[O][Sb](=[O])([O][Sb]2(=[O])[O][C@H]([C@H](O)CO)[C@H](O)[C@H](C(=O)O)[O]2)[O][C@H]([C@H](O)CO)[C@@H]1O (some centres undefined) [stibogluconate] + O=C1NC(=O)/C(=C/c2ccc(-c3ccc(F)cc3O)o2)S1 [AS252424] (first compound 10 µM, partner dose 5 µM) | 72.7% | 98.9% | 96% | 92.1% | 110% | 95.3% | 116% | 94.2% | 85.2% | –
O=C(Nc1cc(C(F)(F)F)cc(C(F)(F)F)c1)c1cc(Cl)ccc1O + O=C1NC(=O)/C(=C/c2ccc(-c3ccc(F)cc3O)o2)S1 [AS252424] (first compound 0.08 µM, partner dose 5 µM) | 95.4% | 96.9% | 86.1% | 82.5% | 85.9% | 107% | 77.5% | 117% | 92.3% | –
O=C(O)c1ccc2c(c1)nc(Nc1cccc(Cl)c1)c1ccncc12 + CC(C)CCN1c2nc(Nc3cc(F)c(O)c(F)c3)ncc2N(C)C(=O)C1C [BID1870] (first compound 2 µM, partner dose 1 µM) | 47.4% | 61.5% | 57.5% | 54% | 58.4% | 41.2% | 68.6% | 54.2% | 59.6% | –
O=C(Nc1cc(C(F)(F)F)cc(C(F)(F)F)c1)c1cc(Cl)ccc1O + COc1ccc(-c2ccc3c(N4CCOCC4)nc(N4C[C@@H](C)O[C@@H](C)C4)nc3n2)cc1CO [KU0063794] (first compound 0.08 µM, partner dose 0.1 µM) | 85.7% | 82.9% | 88.6% | 89.5% | 84.7% | 76% | 77.7% | 93.9% | 76.4% | –
O=C(O)c1ccc2c(c1)nc(Nc1cccc(Cl)c1)c1ccncc12 + Oc1cc(-c2nc(-c3ccccc3)[nH]c2-c2ccncc2)ccc1Cl [L779450] (first compound 2 µM, partner dose 1 µM) | 46.9% | 8.57% | 61.8% | 60.1% | 80.9% | 37% | 62.3% | 74.9% | 43.8% | –
O=C(O)c1ccc2c(c1)nc(Nc1cccc(Cl)c1)c1ccncc12 + COC(=O)c1sccc1S(=O)(=O)Nc1ccc(Nc2ccccc2)cc1OC [GSK0660] (first compound 2 µM, partner dose 5 µM) | 89% | 93.4% | 80.1% | 86.6% | 85.9% | 80.1% | 97.3% | 102% | 71.7% | –
O=C(O)[C@@H]1[O][Sb](=[O])([O][Sb]2(=[O])[O][C@H]([C@H](O)CO)[C@H](O)[C@H](C(=O)O)[O]2)[O][C@H]([C@H](O)CO)[C@@H]1O (some centres undefined) [stibogluconate] + c1cc(-c2cnn3cc(-c4ccc(OCCN5CCCCC5)cc4)cnc23)ccn1 [Dorsomorphin] (first compound 10 µM, partner dose 2 µM) | 124% | 113% | 133% | 88.7% | 105% | 121% | 95.8% | 101% | 101% | –
O=C(O)[C@@H]1[O][Sb](=[O])([O][Sb]2(=[O])[O][C@H]([C@H](O)CO)[C@H](O)[C@H](C(=O)O)[O]2)[O][C@H]([C@H](O)CO)[C@@H]1O (some centres undefined) [stibogluconate] + Oc1nc(-c2ccc(C(F)(F)F)cc2)nc2c1CSCC2 [XAV939] (first compound 10 µM, partner dose 10 µM) | 50.9% | 113% | 94.7% | 53% | 78.1% | 74.9% | 84.2% | 40.3% | 93.8% | –
O=C(Nc1cc(C(F)(F)F)cc(C(F)(F)F)c1)c1cc(Cl)ccc1O + COc1cc(N2CCC(N3CCN(C)CC3)CC2)ccc1Nc1ncc(Cl)c(Nc2ccccc2S(=O)(=O)C(C)C)n1 [NVP-TAE684] (first compound 0.08 µM, partner dose 0.4 µM) | 67% | 67.9% | 123% | 60.7% | 79.5% | 72.6% | 76.4% | 81.2% | 86.6% | –
O=C(Nc1cc(C(F)(F)F)cc(C(F)(F)F)c1)c1cc(Cl)ccc1O + COc1ccc(COc2ccc(Cc3cnc(N)nc3N)cc2OC)cc1 [GW2580] (first compound 0.08 µM, partner dose 5 µM) | 126% | 94.1% | 88.5% | 68.6% | 78.5% | 99.5% | 88.3% | 102% | 100% | –
